In the supplement of paper PMC10441789:
This is one part of the list. Antibody binding of pooled human sera (four to six donors per pool; dilution not stated) to peptides of the Trypanosoma cruzi antigen TSSA on microarrays. Quantile-normalised fluorescence in arbitrary units, mean of duplicate arrays; higher = more binding. No active / inactive call. The uninfected pools are read here as the healthy donors of the same country. The strongest signals lie near the top of the scale (about 60,000).

Key:
Test in all cases: antibody binding signal (normalised fluorescence) (arbitrary fluorescence units); higher = stronger serum antibody binding to peptide
[1] = tested on: pooled sera of chronic Chagas disease patients, Argentina
Method: (§1)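 Microarray of 15-residue peptides over residues 30-55 of Trypanosoma cruzi TSSAII, each with 1 to 10 substitutions at naturally variable positions, probed with one serum pool per country.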

[2] = tested on: pooled sera of chronic Chagas disease patients, Bolivia
Method: as §1

[3] = tested on: pooled sera of chronic Chagas disease patients, Brazil
Method: as §1

[4] = tested on: pooled sera of chronic Chagas disease patients, Colombia
Method: as §1

[5] = tested on: pooled sera of chronic Chagas disease patients, Mexico
Method: as §1

[6] = tested on: pooled sera of chronic Chagas disease patients, USA
Method: as §1

[7] = tested on: pooled sera of uninfected people, Argentina
Method: as §1

[8] = tested on: pooled sera of uninfected people, Bolivia
Method: as §1

[9] = tested on: pooled sera of uninfected people, Brazil
Method: as §1

[10] = tested on: pooled sera of uninfected people, Colombia
Method: as §1

[11] = tested on: pooled sera of uninfected people, Mexico
Method: as §1

[12] = tested on: pooled sera of uninfected people, USA
Method: as §1

Sequence	antibody binding signal [1]	antibody binding signal [2]	antibody binding signal [3]	antibody binding signal [4]	antibody binding signal [5]	antibody binding signal [6]	antibody binding signal [7]	antibody binding signal [8]	antibody binding signal [9]	antibody binding signal [10]	antibody binding signal [11]	antibody binding signal [12]
KENKTATGGAPSQSG	309	194	246	444	244	248	281	119	140	100	130	126
GKEKKAATGEAPSPP	18500	14000	20600	8290	8670	19000	237	82.9	93.3	191	73.6	131
GKDNKTAAGGAPSPP	519	191	368	3550	1200	1320	177	144	105	160	83.7	138
GKDNKAAAGEAPSPS	963	248	5560	1730	1940	10800	236	288	95.6	165	80.2	79.5
ISTPPSGKENKTAAG	31700	3680	8960	456	7350	3160	2390	1100	146	604	205	427
TDNKTATGEAPSPSG	12900	30300	17800	201	156	22100	166	288	274	182	89.3	109
KDKKTATGGAPSPPG	441	215	217	1060	247	499	212	93.7	105	77	98	127
TPPSGKEKKTAAGGT	3850	250	393	2690	11100	1890	230	201	641	190	92.9	112
TSSTPPSGKDNKAAT	8690	4680	4430	698	14900	1790	275	471	118	180	129	150
TENKPATGEAPSPSG	45000	48500	51900	260	636	40700	972	671	387	102	170	169
KDKKPAAGGAPSQSG	193	221	193	1220	228	245	114	91.9	128	86.3	77.1	94.4
PSGKDNKTAAGEAPS	5390	2390	5620	10400	6780	8100	452	366	263	311	143	189
GKEKKAATGGTPSQS	5470	257	303	2170	2580	2140	177	94.1	239	269	148	115
DKKTATGGAPSPSGA	1250	217	585	3800	753	970	421	262	108	91.1	398	180
PPSGTDNKPATGGAP	29800	43300	51900	3350	4080	14500	1790	1650	938	947	1740	1170
PSGTDKKTAAGGAPS	1270	571	1970	9380	3320	1780	269	588	165	343	233	255
PSGKEKKTATGEAPS	13000	2500	10900	4030	4780	16500	408	342	101	180	144	133
GKDKKAAAGEAPSPS	267	239	285	594	611	9300	179	78.6	98.1	102	77.1	94
PPSGKENKTAAGETP	6410	9370	4090	1340	1770	3690	2440	1780	306	876	374	274
TDNKTAAGGAPSPPG	239	303	309	4440	419	662	249	250	630	215	254	186
